The whole screen tested about 310,000 compounds, of which about 14,000 (4.5%) showed an effect of 50% or more. Effects have a minus sign here. The list shows a part of the results.
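Further: peak tail current of the secondary pulse compared with the same well before compound.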

For this assay, the target named is human ether-à-go-go-related gene (hERG) potassium channel (human, UniProt Q12809). The assay can be described thus: primary screen, population patch clamp on CHO cells stably expressing hERG.
Chain of human ether-à-go-go-related gene (hERG) potassium channel (Q12809 whole entry, looked up): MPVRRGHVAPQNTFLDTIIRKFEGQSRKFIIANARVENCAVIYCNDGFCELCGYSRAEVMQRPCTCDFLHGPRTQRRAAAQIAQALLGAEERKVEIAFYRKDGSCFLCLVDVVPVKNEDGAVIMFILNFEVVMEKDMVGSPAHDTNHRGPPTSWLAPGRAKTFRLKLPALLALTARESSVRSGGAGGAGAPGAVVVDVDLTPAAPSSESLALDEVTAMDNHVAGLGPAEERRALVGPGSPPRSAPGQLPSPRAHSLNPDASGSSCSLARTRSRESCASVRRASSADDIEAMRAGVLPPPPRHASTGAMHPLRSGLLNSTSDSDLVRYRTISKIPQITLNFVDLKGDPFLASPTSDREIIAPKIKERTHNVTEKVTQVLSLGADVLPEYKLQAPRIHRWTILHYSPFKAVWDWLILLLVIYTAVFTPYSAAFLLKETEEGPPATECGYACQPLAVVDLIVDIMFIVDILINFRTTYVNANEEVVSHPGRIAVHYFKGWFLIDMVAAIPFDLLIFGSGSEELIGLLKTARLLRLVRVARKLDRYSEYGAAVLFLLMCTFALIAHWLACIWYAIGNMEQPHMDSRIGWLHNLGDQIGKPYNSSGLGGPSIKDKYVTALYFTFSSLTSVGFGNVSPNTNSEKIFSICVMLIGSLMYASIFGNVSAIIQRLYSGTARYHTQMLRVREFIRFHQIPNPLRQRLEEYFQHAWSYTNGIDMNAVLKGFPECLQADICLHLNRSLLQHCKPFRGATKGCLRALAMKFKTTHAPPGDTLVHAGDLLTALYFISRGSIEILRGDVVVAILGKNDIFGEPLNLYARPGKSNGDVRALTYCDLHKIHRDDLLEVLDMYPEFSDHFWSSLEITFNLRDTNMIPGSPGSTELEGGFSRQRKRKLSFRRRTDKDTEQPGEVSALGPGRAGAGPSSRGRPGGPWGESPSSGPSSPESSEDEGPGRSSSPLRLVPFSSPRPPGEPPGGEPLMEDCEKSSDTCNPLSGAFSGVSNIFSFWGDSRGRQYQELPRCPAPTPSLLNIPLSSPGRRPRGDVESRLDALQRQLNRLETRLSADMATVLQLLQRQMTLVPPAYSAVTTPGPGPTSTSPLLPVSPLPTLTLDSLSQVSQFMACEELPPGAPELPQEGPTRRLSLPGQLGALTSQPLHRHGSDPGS
Regarding `CCN(CCCNC(=O)CCNC(=O)Cn1cnc2ccccc2c1=O)c1cccc(C)c1`, the “hERG current change (%, negative = inhibition) at 10uM” value is -8.63%.
For `Cc1cc(NC(=O)CSCC(=O)Nc2cc(C(F)(F)F)ccc2N2CCCC2)no1`, the “hERG current change (%, negative = inhibition) at 10uM” value was 13.7%.
`CCOC(=O)N1CCN(C(=O)c2ccc3c(c2)N(Cc2ccc(C)cc2)CCS3)CC1`: the “hERG current change (%, negative = inhibition) at 10uM” value is -20%.
Next, `N#Cc1c(N)n(-c2ccccc2)c(=O)c2cc([N+](=O)[O-])ccc12`: 16.9%; `Cc1nc2ccc(NC(=O)c3ccc(F)c(S(=O)(=O)N4CCOCC4)c3)cc2s1`: 2.39%.
`O=C1C2C3CCC(C3)C2C(=O)N1c1ccc2ccccc2c1` (stereo not drawn): the “hERG current change (%, negative = inhibition) at 10uM” value came out at 2.72%.
`COc1ccc(C(CNS(=O)(=O)c2ccc(C)cc2)N2CCN(C)CC2)cc1` (stereo not drawn): the “hERG current change (%, negative = inhibition) at 10uM” value is -45.2%.
For `O=C(NNC(=O)c1ccccn1)c1cccc([N+](=O)[O-])c1`, the “hERG current change (%, negative = inhibition) at 10uM” value was 8.7%.
To `Cc1ccc(S(=O)(=O)N2CCCC2C(=O)NCc2ccccc2Cl)cc1` (stereo not drawn) belongs -2.88%; to `CCOC(=O)c1[nH]c2cc(OC)c(OC)cc2c1NC(=O)C(C)N1CCN(Cc2ccccc2)CC1` (stereo not drawn), -38.6%.
With `Cc1cc(Nc2ccc(F)c(F)c2)nc(-c2ccccc2O)n1`, the “hERG current change (%, negative = inhibition) at 10uM” value was 13.9%.
Consider `COCCn1c(Cc2ccccc2)nnc1SCC(=O)Nc1oc(C)c2c(C)n[nH]c(=O)c12`, for which the “hERG current change (%, negative = inhibition) at 10uM” value was found to be 13.8%.
For `Fc1ccc(NC(=S)N2CCN(c3ccccn3)CC2)cc1Cl`, the “hERG current change (%, negative = inhibition) at 10uM” value was 10.7%.
As to `O=C(CCCCCN1C(=O)c2ccccc2C1=O)NCc1ccccn1`, the “hERG current change (%, negative = inhibition) at 10uM” value stood at 14.5%.
Next, `COc1ccc(CCNCc2ccc(OCC(=O)N3CCCCC3)c(OC)c2)cc1OC.Cl`: 0.411%; `Cc1ccc(CNC(=O)C2CCCN(S(=O)(=O)c3cccc4nonc34)C2)cc1` (stereo not drawn): 16.4%; `CCOC(=O)C1=C(C)Nc2ncnn2C1c1c[nH]c2ccccc12` (stereo not drawn): -6.28%.
For `CCOc1ccccc1N(CC(=O)Nc1ccc(C)cc1)S(C)(=O)=O`, the “hERG current change (%, negative = inhibition) at 10uM” value came out at 2.47%.
Next, `S=C(/N=c1/sccn1Cc1ccccc1)NC1CC1`: 9.15%; `Cc1ccc(CNC(=O)C2CCC(=O)N(CCc3ccccn3)C2)s1` (stereo not drawn): 2.53%.
Take `C/C=C\C=C/C(=O)Nc1cccc(C2=NOC3(C2)C[C@@H](C(N)=O)N(C(=O)/C=C/CC)C3)c1` (stereo partly drawn): the “hERG current change (%, negative = inhibition) at 10uM” value was -9.11%.
`COC(=O)c1sc(S(=O)(=O)N2CCN(c3ccc(OC)cc3)CC2)c(C(=O)OC)c1C`: the “hERG current change (%, negative = inhibition) at 10uM” value is on record as -25%.
To `COc1ccc(S(=O)(=O)NCc2ccco2)cc1C(=O)N1CCCCC1` belongs -7.43%.
Take `Cc1nnc(SCCN2C(=O)c3ccccc3C2=O)[nH]c1=O`: the “hERG current change (%, negative = inhibition) at 10uM” value amounted to 2.37%.
To `Cn1c(SCC(=O)Nc2ccc(N3CCOCC3)c(Cl)c2)nnc1C(O)c1ccccc1` (stereo not drawn) belongs -4.85%; to `CCOC(=O)CSc1nnc(Cc2ccccc2)n1-c1ccc(C)cc1`, -37.4%; to `CCc1ccc(OCC(=O)Nc2ccc3oc(=O)ccc3c2)cc1`, 13.1%.
Turning to `CCc1cccc(N(C(=O)c2csnn2)C(C(=O)NC(C)(C)C)c2ccccn2)c1` (stereo not drawn), the “hERG current change (%, negative = inhibition) at 10uM” value was 1.65%.
To `CCCCNc1nc2ccccc2nc1NS(=O)(=O)c1cccs1` belongs 6.48%.
For the compound `CCOc1ccccc1C(=O)Nc1ccc(S(=O)(=O)Nc2nccc(C)n2)cc1`, the “hERG current change (%, negative = inhibition) at 10uM” value amounted to 2.82%.
Next, `C#Cc1ccc(C(=O)NCc2ccc(N3CCCC3=O)cc2)cc1`: 20.2%; `CCCc1cc(=O)oc2cc(OCC(=O)N3C[C@H]4C[C@@H](C3)c3cccc(=O)n3C4)ccc12`: 5.55%.
For the compound `Cc1nnc(Sc2nc3ccccc3o2)c2ccccc12`, the “hERG current change (%, negative = inhibition) at 10uM” value was found to be 5.85%.
To `COc1ccc(CCNC(=O)C2CCC(=O)N(C3CCCCCC3)C2)cc1` (stereo not drawn) belongs 8.9%; to `O=C(Cn1c(=O)oc2ccccc21)Nc1ccccc1Cl`, 14.1%.
For `CC(C)(C)C(=O)NC1=NN(c2c(Cl)cc(Cl)cc2Cl)C(=O)C1`, the “hERG current change (%, negative = inhibition) at 10uM” value worked out at 21.9%.
Turning to `O=S(=O)(c1ccc2nc(SCc3ccc(Cl)cc3)[nH]c2c1)N1CCOCC1`, the “hERG current change (%, negative = inhibition) at 10uM” value is -24%.
To `CN(CC(=O)NCCCN1CCOCC1)S(=O)(=O)c1cc(Cl)ccc1Cl` belongs -14.8%.
For `CC(CCc1ccccc1)NC(=O)CN(C)Cc1ccccc1F` (stereo not drawn), the “hERG current change (%, negative = inhibition) at 10uM” value is given as -36.4%.
For `C=CCNC(=S)Nc1ccc(Cl)c(S(=O)(=O)N2CCOCC2)c1`, the “hERG current change (%, negative = inhibition) at 10uM” value was 13.2%.
`C=CCC1(O)C(=O)N2C(=C1C(=O)OCC)c1ccc3ccccc3c1CC2(C)C` (stereo not drawn): the “hERG current change (%, negative = inhibition) at 10uM” value worked out at 2.23%.
In the case of `Cc1c(-n2c(-c3ccccc3)nc3ccccc3c2=O)c(=O)n(-c2ccccc2)n1C`, the “hERG current change (%, negative = inhibition) at 10uM” value is listed as 0.536%.
Consider `O=C(Cc1ccccc1)NC1CCSc2ccccc21` (stereo not drawn), for which the “hERG current change (%, negative = inhibition) at 10uM” value amounted to 12%.
Consider `COc1cc(-c2n[nH]c(=S)n2-c2ccc(C)cc2)cc(OC)c1OC`, for which the “hERG current change (%, negative = inhibition) at 10uM” value worked out at 18.3%.
To `O=C(N/N=C/c1c(O)n(-c2ccc(Cl)cn2)c(=O)c2ccccc12)c1ccncc1` belongs 23.2%; to `O=C(NCCCc1ccncc1)C1CCC(=O)N(Cc2cccc(F)c2)C1` (stereo not drawn), -14.5%.
To `Cl.O=C(NCCCN1CCOCC1)c1ccc(CSc2ccc(Cl)cc2)cc1` belongs -59.2%; to `CC1CCc2c(sc3ncn(CC(=O)N=Nc4c(O)[nH]c5ccccc45)c(=O)c23)C1` (stereo not drawn), -29.8%.
For `Clc1ccc2c(c1)C(C1=NCCN1)c1ccccc1CS2.O=C(O)/C=C\C(=O)O` (stereo not drawn), the “hERG current change (%, negative = inhibition) at 10uM” value was -8.02%.
To `Br.CC(C)(C)c1ccc(CN2C3=NCCCN3c3ccccc32)cc1` belongs -77.6%; to `O=C(Nc1cnn(Cc2ccc(Cl)c(Cl)c2)c1)c1nc2ncccn2n1`, -5.27%; to `COc1ccc(-c2ccc(CCC(=O)O)n2CC(=O)Nc2ccccc2C)cc1`, 17.8%.
In the case of `O=C(NC1CCCCC1)C1CCCN(S(=O)(=O)c2ccc(Br)s2)C1` (stereo not drawn), the “hERG current change (%, negative = inhibition) at 10uM” value was 17.1%.
To `CN1CCN(c2ccccc2NC(=O)Cc2cn(C)c3ccccc23)CC1` belongs -59.5%; to `CCN(CC)c1ccc(/C=C(/C#N)C(=O)NCc2ccccc2)o1`, 2.6%.
To `CCN=C1SC(CC(=O)Nc2ccc(N3CCOCC3)cc2)C(=O)N1CC` (stereo not drawn) belongs 12.2%; to `COc1ccc(-c2ccc(CCC(=O)O)n2-c2ccccc2OC)cc1`, 0.474%; to `O=C(CN1CCCCC1)n1c2ccccc2c2ccccc21`, -16.3%.
On to `CCOC(=O)/C=C1\CN(Cc2cc(OC)c(OC)c(OC)c2)S(=O)(=O)c2ccccc21`, for which the “hERG current change (%, negative = inhibition) at 10uM” value is reported as -6.93%.
For `O=C(Nc1ccc(Cl)cc1)Nc1ccccc1Sc1ncc([N+](=O)[O-])s1`, the “hERG current change (%, negative = inhibition) at 10uM” value was determined as 15.4%.
Take `O=C(/C(=N/O)n1cncn1)c1ccccc1Cl`: the “hERG current change (%, negative = inhibition) at 10uM” value is recorded as 12.9%.
To `Cc1noc(/C=C/N(C)C)c1S(=O)(=O)N1CCCC(C(=O)NCc2cccs2)C1` (stereo not drawn) belongs 1.93%.
To `CN(C(=O)CSc1nnc(C(F)(F)F)n1N)C1CCS(=O)(=O)C1` (stereo not drawn) belongs 7.42%; to `NNC(=O)COc1cccc(C(F)(F)F)c1`, 35.7%.
Regarding `CCC(=O)NC(=S)Nc1ccccc1C(=O)OC`, the “hERG current change (%, negative = inhibition) at 10uM” value was determined as 16.9%.
For `CC1(C(=O)OCC(=O)Nc2ccccc2Cl)CC1(Cl)Cl` (stereo not drawn), the “hERG current change (%, negative = inhibition) at 10uM” value is reported as -15.3%.
Next, `O=C(N/N=C/c1ccncc1)c1ccccc1`: 0.899%.
`CCOC(=O)c1cn2nc(Oc3ccc(C)cc3)ccc2n1`: the “hERG current change (%, negative = inhibition) at 10uM” value amounted to 1.97%.
Next, `CCOc1ccc(NC(=O)CN2CCN(CC(=O)Nc3ccc4c(c3)OCO4)CC2)cc1`: -76.1%; `Clc1ccc(OCCn2c(-c3ccco3)nc3ccccc32)cc1`: -26.7%.
Take `CCc1noc(C)c1C(=O)N(C)CC(=O)Nc1ccc(OC)cc1`: the “hERG current change (%, negative = inhibition) at 10uM” value turned out to be 4.33%.
To `O=C(CC1C(=O)NCCN1C(=O)Nc1ccc(Cl)cc1)Nc1ccc(F)cc1` (stereo not drawn) belongs -32.9%.
With `C=C1CCN([C@H](C(=O)OCc2ccc(C)cc2)C(C)C)S(=O)(=O)c2ccccc21`, the “hERG current change (%, negative = inhibition) at 10uM” value is given as -7.72%.
For `CCc1ccccc1NC(=O)CNC(=O)CNC(=O)C1CCCCC1`, the “hERG current change (%, negative = inhibition) at 10uM” value amounted to 12.7%.
Next, `COC(=O)C1=C(N)OC2=C(C(=O)CC(C)(C)C2)C1c1ccoc1` (stereo not drawn): -6.08%; `O=C(COc1ccc(Br)cc1Br)NC1CCCC1`: 12.9%.
Consider `CN(C)S(=O)(=O)c1ccc(N)c([N+](=O)[O-])c1`, for which the “hERG current change (%, negative = inhibition) at 10uM” value was 15%.
Consider `O=C(NCc1cccc(Br)c1)C1CC2Cn3c(nc4ccccc43)C2N1Cc1ccccc1` (stereo not drawn), for which the “hERG current change (%, negative = inhibition) at 10uM” value is -74.2%.
To `CC1(C)Cc2cccc(C(=O)Nc3ccc(F)cc3F)c2O1` belongs 21.6%; to `Cc1nn(Cc2c(Cl)cccc2Cl)c(Cl)c1/C=N/NC(=O)c1cccnc1`, 8.86%; to `CCOc1cc(N2CCOCC2)c(OCC)cc1NC(=O)CN1CCCC(C)C1` (stereo not drawn), -25.8%.
For the compound `O=C(C1CCC(=O)N1C1CCCCC1)N1CCN(c2ccc(F)cc2)CC1` (stereo not drawn), the “hERG current change (%, negative = inhibition) at 10uM” value is listed as -14.1%.
With `Nc1nc2ccccc2[nH]1`, the “hERG current change (%, negative = inhibition) at 10uM” value stood at 15.9%.
Next, `O=C(CN1CCOCC1)Nc1ccccc1Cl`: -8.73%; `CCCc1nc2ccccc2c(=O)n1/N=C/c1ccc(O)cc1`: 14.5%.
On to `CC(C)(C)N(NC(=O)c1ccccc1)C(=O)c1ccccc1`, for which the “hERG current change (%, negative = inhibition) at 10uM” value is on record as -1.27%.
In the case of `O=C(COc1ccccc1Cl)Nc1cc(NC(=O)COc2ccccc2Cl)cc(C(=O)O)c1`, the “hERG current change (%, negative = inhibition) at 10uM” value is recorded as -0.786%.

These data come from article PMC4336329 (PLoS ONE, 2015).
